This is one part of the list. Cut-off read from the data, not from the text of the source: active = 3.2 or more and inactive = the rest. The signal is at background level for most entries.
B1: FAM111A_Y511_YF (peptide)
chain: AESPEYVHMFT
B2: FAM120A_Y327 (peptide)
chain: KRAIGYYSATS
B3: FAM120A_Y327_Y327H (peptide)
chain: KRAIGHYSATS
B4: FAM120A_Y328 (peptide)
chain: RAIGYYSATSK
B5: FAM120A_Y328_Y327H (peptide)
chain: RAIGHYSATSK
B6: FAM120A_Y328_YF (peptide)
chain: RAIGFYSATSK
B7: FAM120B_Y368 (peptide)
chain: REVPVYTDSEP
B8: FAM120B_Y368_D370Y_YF (peptide)
chain: REVPVYTFSEP
B9: FAM171B_Y522 (peptide)
chain: GNEEAYGRSHI
B10: FAM20C_Y279 (peptide)
chain: MTFQNYGQALF
B11: FAM3D_Y122 (peptide)
chain: KAFDMYSGDVM
B12: FAM3D_Y65 (peptide)
chain: PCPANYFAFKI
B13: FAM83B_Y433_S435R (peptide)
chain: SSREGYVRHHN
B14: FAM83B_Y637_K640T (peptide)
chain: TESNNYIYTTL
B15: FAM83B_Y637_K640T_YF (peptide)
chain: TESNNYIFTTL
B16: FAM83B_Y637_YF (peptide)
chain: TESNNYIFKTL
B17: FAM83B_Y639 (peptide)
chain: SNNYIYKTLGV
B18: FAM83B_Y639_K640T (peptide)
chain: SNNYIYTTLGV
B19: FAM83C_Y600 (peptide)
chain: DLLMQYPKAQG

Biological target: SHP2 C-SH2 domain E139D
Test: enrichment score (SH2-bound / input frequency) (ratio); bacterial display of known human phosphotyrosine sites (pTyr-Var adds point mutants) read by sequencing; higher = stronger binding; tyrosines were phosphorylated by kinases first
Settings: peptide library: pTyr-Var
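Note: displayed peptides selected on beads carrying the immobilized SH2 domain, with library peptides lacking any tyrosine serving as negative controls.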

Binder | enrichment score
B1 | inactive: 0.981
B2 | inactive: 0.684
B3 | inactive: 0.465
B4 | inactive: 0.677
B5 | inactive: 0.558
B6 | inactive: 0.787
B7 | inactive: 0.569
B8 | inactive: 0.874
B9 | inactive: 0.528
B10 | inactive: 0.975
B11 | inactive: 0.837
B12 | inactive: 1.79
B13 | inactive: 0.842
B14 | inactive: 0.553
B15 | inactive: 0.66
B16 | inactive: 0.443
B17 | inactive: 0.984
B18 | inactive: 1.02
B19 | inactive: 1.06

Biological target: SHP2 C-SH2 domain wild-type
Test: as above
Settings: peptide library: pTyr-Var

Binder | enrichment score
B1 | inactive: 1
B2 | inactive: 0.625
B3 | inactive: 0.528
B4 | inactive: 0.733
B5 | inactive: 0.561
B6 | inactive: 0.736
B7 | inactive: 0.732
B8 | inactive: 1.23
B9 | inactive: 0.56
B10 | inactive: 0.833
B11 | inactive: 0.725
B12 | inactive: 1.84
B13 | inactive: 0.727
B14 | inactive: 0.638
B15 | inactive: 0.716
B16 | inactive: 0.616
B17 | inactive: 1.18
B18 | inactive: 2.37
B19 | inactive: 0.745

Biological target: SHP2 N-SH2 domain L43F
Test: as above
Settings: peptide library: pTyr-Var

Binder | enrichment score
B1 | inactive: 0.786
B2 | inactive: 0.581
B3 | inactive: 0.555
B4 | inactive: 0.397
B5 | inactive: 0.805
B6 | inactive: 0.816
B7 | inactive: 0.577
B8 | inactive: 0.848
B9 | inactive: 0.561
B10 | inactive: 1.08
B11 | inactive: 0.73
B12 | inactive: 1.88
B13 | inactive: 0.871
B14 | inactive: 0.607
B15 | inactive: 0.655
B16 | inactive: 0.614
B17 | inactive: 0.879
B18 | inactive: 1.02
B19 | inactive: 0.865

Biological target: SHP2 N-SH2 domain T42A
Test: as above
Settings: peptide library: pTyr-Var

Binder | enrichment score
B1 | inactive: 0.781
B2 | inactive: 0.542
B3 | inactive: 0.48
B4 | inactive: 0.703
B5 | inactive: 0.347
B6 | inactive: 0.856
B7 | inactive: 0.416
B8 | inactive: 0.635
B9 | inactive: 0.632
B10 | inactive: 1.2
B11 | inactive: 0.58
B12 | inactive: 1.69
B13 | inactive: 0.836
B14 | inactive: 0.913
B15 | inactive: 0.522
B16 | inactive: 0.531
B17 | inactive: 0.96
B18 | active: 5.16
B19 | inactive: 0.706

Biological target: SHP2 N-SH2 domain T52S
Test: as above
Settings: peptide library: pTyr-Var

Binder | enrichment score
B1 | inactive: 0.766
B2 | inactive: 0.676
B3 | inactive: 0.471
B4 | inactive: 0.401
B5 | inactive: 0.552
B6 | inactive: 0.745
B7 | inactive: 0.708
B8 | inactive: 0.841
B9 | inactive: 0.984
B10 | inactive: 1.25
B11 | inactive: 0.82
B12 | inactive: 1.58
B13 | inactive: 0.86
B14 | inactive: 0.686
B15 | inactive: 0.766
B16 | inactive: 0.615
B17 | inactive: 0.792
B18 | inactive: 1.07
B19 | inactive: 0.885

Biological target: SHP2 N-SH2 domain wild-type
Test: as above
Settings: peptide library: pTyr-Var

Binder | enrichment score
B1 | inactive: 1.07
B2 | inactive: 0.683
B3 | inactive: 0.674
B4 | inactive: 0.777
B5 | inactive: 0.481
B6 | inactive: 1.02
B7 | inactive: 0.83
B8 | inactive: 1.08
B9 | inactive: 0.635
B10 | inactive: 1.11
B11 | inactive: 0.66
B12 | inactive: 1.76
B13 | inactive: 0.867
B14 | inactive: 0.577
B15 | inactive: 0.983
B16 | inactive: 0.952
B17 | inactive: 0.998
B18 | inactive: 0.764
B19 | inactive: 1.24

Reference: the supplement of paper PMC10369915
